Experimental data from the supplement of paper PMC10126150.
Sequences with one replicate were seen in a single cluster, so their values are uncertain.

Test system: ATP
Test: switch fluorescence ratio, 500 uM ATP over buffer (Cy3 cluster intensity, sum of 5 cycles each) (fold (ratio)); higher = stronger signal-on switching upon ATP binding; sequences stand for … in TCGTCGGCAGCGTCAGATGTGTATAAGAGACAGTTTTTTTTTTTTTTTTTTTTTTTTT…TC
Conditions: aptamer strand: ATP DNA aptamer (quencher-CACCTGGGGGAGTATTGCGGAGGAAGG + anchor), 100 nM annealed; ATP concentration: 500 uM; one replicate
Outline: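 Cy3-labelled switching-strand clusters on a modified Illumina MiSeq flow-cell were annealed to 100 nM quencher-labelled ATP aptamer and imaged first in selection buffer, then after 15 min with 500 uM ATP at 22 °C. NaOH stripping and re-annealing separated each of five buffer/ATP cycles, and clusters outside 100-1000 RFU were excluded. The fluorescence ratio sums target-cycle Cy3 intensity over buffer-cycle Cy3 intensity per cluster and averages it per switch-domain sequence.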
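Further: ATP exposure 15 min at 22 °C before imaging.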

Sequence	switch fluorescence ratio
CGACAAAAGA	3.03
CGACAAAGAC	3.07
CGACATGGAA	0.984
CGACATTGA	0.942
CGACCGAG	0.978
CGACCGTGAA	1.2
CGACCTAATT	1.08
CGACCTCTTT	0.979
CGACCTGATC	1.71
CGACGGGCAT	1.06
CGACGGGCTG	1.08
CGACGGTATG	0.988
CGACGTTTCA	1.01
CGACTATACT	2.54
CGACTATGCG	1.07
CGACTGATCT	1.01
CGACTGCGGG	1.03
CGACTGGGAT	1.18
CGACTGTGCG	1.02
CGACTTGTCG	0.967
CGACTTGTT	1.02
CGAGACAAG	0.953

Sequence	switch fluorescence ratio
CGAGACCAAT	1.09
CGAGAGCATA	2.44
CGAGAGGTCT	0.954
CGAGAGGTGT	1.06
CGAGATACCT	1.22
CGAGATCACA	0.937
CGAGATCTAT	0.979
CGAGCCCAG	2.79
CGAGCCGGAC	1.03
CGAGCGGACA	1.12
CGAGCTCCTA	1.08
CGAGCTTGCG	1.04
CGAGGAAACG	0.976
CGAGGAAGCC	0.952
CGAGGCAAGG	3.41
CGAGGCCAGG	2.66
CGAGGCCTGC	1.1
CGAGGGACAT	1.02
CGAGGGCAC	1.01
CGAGGGTGAA	1.01
CGAGGTCACC	1.04
CGAGGTTAGA	0.997

Sequence	switch fluorescence ratio
CGAGGTTTA	0.977
CGAGTAAGAG	1.1
CGAGTAGTCT	0.993
CGAGTATTTG	0.983
CGAGTCACGT	0.97
CGAGTGAACT	0.964
CGAGTGAAGG	0.989
CGAGTGGATC	1.05
CGAGTTAAGA	1.01
CGAGTTGCAC	0.962
CGAGTTGCCA	0.999
CGAGTTTC	1
CGATAAAAGT	0.975
CGATAACAGA	0.975
CGATAACAGG	2.14
CGATACGAAT	0.985
CGATAGGCTA	1.01
CGATAGGGAA	0.984
CGATAGGTCA	1.02
CGATATATTC	1.06
CGATATGGGA	1.02
CGATATTTGA	0.999

Sequence	switch fluorescence ratio
CGATATTTGC	1.03
CGATCAGGTA	0.972
CGATCATGAA	1.03
CGATCGTGTT	0.947
CGATCTACTT	1.03
CGATCTGTAA	1
CGATCTTTCG	0.998
CGATGACGA	1.08
CGATGATAGC	1.05
CGATGCCAAA	1.05
CGATGCCACG	1.05
CGATGCCCTC	1.03
CGATGCTATG	1.07
CGATGGATTC	1.14
CGATGTACGG	1.02
CGATGTAGAC	1.38
CGATGTGGCA	1.07
CGATGTGTTG	0.959
CGATGTTTGC	1.15
